Laboratory results: PubChem BioAssay (NCATS)
The inconclusive results got no clear call from the source; some entries with a clear call stand among them for comparison. Potencies of inconclusive entries are doubtful fits and often do not repeat. Calls of active or inactive are those of the source. Calls come from the whole dose curve; as a rule, active = well fitted curve in the direction sought with a large enough effect; inconclusive = small, poorly fitted or top-dose-only effect, or another doubt; inactive = no such curve, though single readings can be large; an effect the other way counts as inactive or inconclusive.

What was measured:
[1] = molecular target: Rap guanine nucleotide exchange factor 3 (Homo sapiens) (UniProt O95398); assay: Confirmatory qHTS for antagonist of cAMP-regulated guanine nucleotide exchange factor 3 (EPAC1) (AID 1645880); conditions: EPAC1 Rap1B-BODIPY-GDP exchange, fluorescence; activity, negative = inhibition: at 115 µM (top of the series); note: nearly all actives have a fitted effect of over 55% in size;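 for activity, negative = inhibition: plate controls were DMSO only for no effect and full effect of the ATA control for full effect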
In short: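 Released BODIPY-GDP fluoresces less than Rap1-bound BODIPY-GDP; the signal is followed at 480/540 nm at 5-min intervals over 30 min, after 5 min at room temperature. Reactions contain 100 nM EPAC1, 250 nM RAP1B-BODIPY-GDP and 50 uM GDP; results are normalized to ATA and DMSO.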

[2] = molecular target: Rap guanine nucleotide exchange factor 4 (Homo sapiens) (UniProt Q8WZA2); assay: Confirmatory qHTS for antagonist of cAMP-regulated guanine nucleotide exchange factor 4 (EPAC2) (AID 1645885); conditions: EPAC2 Rap1B-BODIPY-GDP exchange fluorescence, biochemical; activity change, negative = inhibition: at 12.7 µM (top of the series) unless noted; series mostly up to 114 µM; note: nearly all actives have a fitted effect of over 25% in size; for activity change, negative = inhibition: % is set by controls: 0 for no effect and ±100 for the full control effect
[3] = molecular target: Rap guanine nucleotide exchange factor 3 (Homo sapiens) (UniProt O95398); assay: Counterscreen qHTS for agonist of cAMP-regulated guanine nucleotide exchange factor 3 (EPAC1) (AID 1645889); conditions: EPAC1 Rap1B-BODIPY-GDP exchange, fluorescence; activation: at 154 µM (top of the series) unless noted; note: nearly all actives have a fitted effect of over 40% in size; for activation: % of control where 0% means no effect
In short: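 Measured: fluorescence of BODIPY-GDP bound to Rap1B, which falls as exchange proceeds. Conditions include 50 uM competing GDP, 5 and 30 min reads, and a later cAMP challenge for antagonist detection.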
Potency is the fitted concentration of half-maximal effect; tags give direction and shape of the fitted curve.

UniProt O95398, sequence (O95398 whole entry, looked up): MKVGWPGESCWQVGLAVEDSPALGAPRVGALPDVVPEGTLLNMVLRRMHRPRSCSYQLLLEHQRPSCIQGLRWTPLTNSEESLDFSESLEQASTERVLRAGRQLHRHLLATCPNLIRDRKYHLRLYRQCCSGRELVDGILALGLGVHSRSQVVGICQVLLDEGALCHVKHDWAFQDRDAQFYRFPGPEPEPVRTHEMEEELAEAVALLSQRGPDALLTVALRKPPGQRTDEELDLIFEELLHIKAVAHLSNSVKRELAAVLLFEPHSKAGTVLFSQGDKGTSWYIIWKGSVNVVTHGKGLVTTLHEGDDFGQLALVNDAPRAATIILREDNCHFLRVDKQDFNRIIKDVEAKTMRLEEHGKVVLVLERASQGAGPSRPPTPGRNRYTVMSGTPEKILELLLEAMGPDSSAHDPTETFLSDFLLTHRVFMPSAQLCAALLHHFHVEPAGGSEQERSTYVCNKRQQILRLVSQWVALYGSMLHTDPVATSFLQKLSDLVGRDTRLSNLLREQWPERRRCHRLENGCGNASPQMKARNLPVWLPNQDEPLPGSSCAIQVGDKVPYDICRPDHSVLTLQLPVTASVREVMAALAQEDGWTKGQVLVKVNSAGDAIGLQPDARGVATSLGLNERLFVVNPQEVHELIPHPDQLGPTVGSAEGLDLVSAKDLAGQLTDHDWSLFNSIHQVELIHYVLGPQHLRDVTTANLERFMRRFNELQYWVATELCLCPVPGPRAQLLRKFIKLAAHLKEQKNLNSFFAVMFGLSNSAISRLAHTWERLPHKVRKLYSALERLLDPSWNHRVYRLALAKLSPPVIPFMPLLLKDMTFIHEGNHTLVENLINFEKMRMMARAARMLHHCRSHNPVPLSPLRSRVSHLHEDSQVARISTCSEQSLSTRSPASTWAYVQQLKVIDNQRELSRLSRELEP
UniProt Q8WZA2, sequence (Q8WZA2 whole entry, looked up): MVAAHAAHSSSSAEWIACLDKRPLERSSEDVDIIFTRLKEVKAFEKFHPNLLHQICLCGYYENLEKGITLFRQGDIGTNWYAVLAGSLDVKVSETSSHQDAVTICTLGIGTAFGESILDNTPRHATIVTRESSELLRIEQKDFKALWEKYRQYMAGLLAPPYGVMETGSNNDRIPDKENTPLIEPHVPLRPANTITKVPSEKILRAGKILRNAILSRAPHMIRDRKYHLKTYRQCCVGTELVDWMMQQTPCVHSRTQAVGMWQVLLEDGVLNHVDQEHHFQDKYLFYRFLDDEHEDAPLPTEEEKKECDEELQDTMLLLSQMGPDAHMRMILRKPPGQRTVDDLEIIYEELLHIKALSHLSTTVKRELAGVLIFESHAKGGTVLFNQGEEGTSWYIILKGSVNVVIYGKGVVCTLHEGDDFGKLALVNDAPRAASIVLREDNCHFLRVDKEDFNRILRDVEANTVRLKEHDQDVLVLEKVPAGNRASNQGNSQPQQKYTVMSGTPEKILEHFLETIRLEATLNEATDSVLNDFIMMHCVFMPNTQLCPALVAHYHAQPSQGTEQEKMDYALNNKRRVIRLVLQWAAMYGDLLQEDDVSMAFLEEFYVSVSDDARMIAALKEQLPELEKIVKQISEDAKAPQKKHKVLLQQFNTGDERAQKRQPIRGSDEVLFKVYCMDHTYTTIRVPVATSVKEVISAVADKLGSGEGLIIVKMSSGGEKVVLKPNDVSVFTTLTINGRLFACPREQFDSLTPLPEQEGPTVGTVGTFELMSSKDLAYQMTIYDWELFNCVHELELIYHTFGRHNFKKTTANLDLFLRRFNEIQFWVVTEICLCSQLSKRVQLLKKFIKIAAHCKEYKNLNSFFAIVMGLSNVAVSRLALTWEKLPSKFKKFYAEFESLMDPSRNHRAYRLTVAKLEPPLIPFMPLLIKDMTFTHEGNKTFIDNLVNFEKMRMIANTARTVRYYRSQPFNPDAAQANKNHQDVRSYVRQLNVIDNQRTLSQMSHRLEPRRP

| Compound | Potency [1] | Potency [2] | Potency [3] | activation [3] | activity, negative = inhibition [1] | outcome [2] |
| --- | --- | --- | --- | --- | --- | --- |
| CCCCC[C@H](C)N1C[C@H](COCc2ccccc2)Oc2cc(N3CCC[C@H]3C(N)=O)ccc2S1(=O)=O | inconclusive: 37.9 µM [inhibitor, partial curve] | inconclusive: 37.9 µM [inhibitor, full curve] | inactive |  |  |  |
| CNc1ccc(/C=C/C(=O)c2ccc(C)cc2)cc1[N+](=O)[O-] | inconclusive: 56.2 µM [inhibitor, partial curve, poor fit] | inactive |  | inactive: 21% [at 30.8 µM] |  |  |
| COc1ccccc1/C=C/C=c1\sc2nc(=O)c(Cc3ccccc3)nn2c1=O | inconclusive: 21.3 µM [inhibitor, full curve] | inconclusive: 95.3 µM [inhibitor, single point] | inactive |  |  |  |
| O=C1C(O)=C(O)C(=O)c2ccccc21 | inconclusive: 84.9 µM [inhibitor, single point] | inconclusive: 95.3 µM [inhibitor, partial curve, poor fit] | inconclusive: 15.8 µM [activator, partial curve, poor fit] |  |  |  |
| COc1ccc2c(c1)c1nnc(SCC(=O)NC3CC3)nc1n2C | inactive | active: 84.9 µM |  | inconclusive: 35.6% [activator] |  |  |
| Cc1cn([C@H]2C[C@H](O)[C@@H](CCC(=O)NCc3ccc4c(c3)OCO4)O2)c(=O)[nH]c1=O | inactive | inactive | inactive |  |  |  |
| Cc1ccc(S(=O)(=O)/N=C2\C=C(NS(=O)(=O)c3ccccc3)C(=O)c3ccccc32)c(C)c1 | inconclusive: 56.2 µM [inhibitor, partial curve, poor fit] | inconclusive: 4.26 µM [inhibitor, partial curve, poor fit] |  | inconclusive: 62.6% [activator] [at 30.8 µM] |  |  |
| CC1(C(=O)NS(=O)(=O)c2cccc(Cl)c2)CCN1C(=O)C1(c2ccc(Cl)cc2)CCC1 (stereo not given) | active: 11.2 µM | inconclusive: 9.53 µM [inhibitor, partial curve, poor fit] |  | inactive: 5.49% [at 30.8 µM] |  |  |
| CC(C)NC(=O)c1sc(=S)n2c1[nH]c(=O)c1ccc(C(=O)NCCc3ccc(Cl)cc3)cc12 | active: 50.1 µM | inconclusive: 4.26 µM [inhibitor, partial curve, poor fit] | inconclusive: 0.01 µM [activator, full curve, poor fit] |  |  |  |
| Cc1ccc(Nc2c([N+](=O)[O-])c(=O)oc3ccccc23)cc1C | inconclusive: 53.6 µM [inhibitor, partial curve] | inconclusive: 33.8 µM [inhibitor, partial curve, poor fit] | inactive |  |  |  |
| Cc1nc(-c2ccc(Cl)cc2)sc1CCNC(=O)c1cccs1 | inconclusive: 95.3 µM [inhibitor, partial curve, poor fit] | inactive | inconclusive: 22.4 µM [activator, single point] |  |  |  |
| Nc1ncc(Br)cc1S(=O)(=O)Nc1cc(C(F)(F)F)cc(C(F)(F)F)c1 | active: 75.7 µM | inactive | inactive |  |  |  |
| CCCCn1c(N)c(N(CCOC)C(=O)c2ccc(-c3ccc(C(C)=O)cc3)o2)c(=O)[nH]c1=O |  | inconclusive: 84.9 µM [inhibitor, partial curve, poor fit] | inconclusive: 0.562 µM [activator, full curve, poor fit] |  | inconclusive: -31.3% [inhibitor] |  |
| Cc1cc(NC(=O)COC(=O)C(C)Oc2ccc(Cl)cc2Cl)no1 (stereo not given) | inactive | inconclusive: 53.6 µM [inhibitor, partial curve, poor fit] |  | inconclusive: 39.9% [activator] |  |  |
| Cc1cc(Cl)ccc1Oc1ccccc1C(=O)CC#N | inconclusive: 47.8 µM [inhibitor, partial curve] | inconclusive: 33.8 µM [inhibitor, partial curve] | inconclusive: 11.2 µM [activator, full curve] |  |  |  |
| CC(C)CC1C(=O)N(Cc2cn(CCC3OCCO3)nn2)CCS(=O)(=O)N1Cc1ccc(-c2ccc(F)cc2)cc1 (stereo not given) | inactive | active: 4.26 µM | inconclusive: 0.0224 µM [activator, full curve] |  |  |  |
| COc1ccc(CCC(=O)N(C)CC(=O)Nc2ccc(Cl)c(C(F)(F)F)c2)cc1 | inconclusive: 37.9 µM [inhibitor, partial curve] | inconclusive: 42.6 µM [inhibitor, partial curve, poor fit] | inactive |  |  |  |
| Clc1cccc(Cc2c(-c3ccco3)nc3ccc(Br)cn23)c1 | inconclusive: 12.6 µM [inhibitor, full curve] | inactive |  | inconclusive: 48.6% [activator] [at 30.8 µM] |  |  |

| Compound | Potency [1] | Potency [2] | Potency [3] | activation [3] | activity, negative = inhibition [1] | outcome [2] |
| --- | --- | --- | --- | --- | --- | --- |
| O=S(=O)(Nc1ccccc1N1CCCC1)c1ccccc1C(F)(F)F | inconclusive: 60.1 µM [inhibitor, partial curve] | inconclusive: 47.8 µM [inhibitor, partial curve] | inactive |  |  |  |
| Cc1ccccc1C(=O)Nc1sc2c(c1C(=O)N1CCCCC1)CCC(C)C2 (stereo not given) | inconclusive: 95.3 µM [inhibitor, partial curve, poor fit] | inactive | inconclusive: 3.16 µM [activator, full curve] |  |  |  |
| N#C/C(=C(/O)c1ccccc1F)c1nc2cc(C(F)(F)F)ccc2s1 | inconclusive: 39.8 µM [inhibitor, partial curve, poor fit] | inconclusive: 8.49 µM [inhibitor, partial curve, poor fit] | inconclusive: 0.0028 µM [activator, full curve, poor fit] |  |  |  |
| COC(=O)c1ccc2c(=O)n(CCCCCC(=O)N3CCN(c4cc(C)ccc4C)CC3)c(=O)[nH]c2c1 | inconclusive: 84.9 µM [inhibitor, single point] | inactive | inconclusive: 22.4 µM [activator, partial curve, poor fit] |  |  |  |
| CN(c1ccc(C(=O)NCc2ccc3c(c2)OCO3)cc1)S(=O)(=O)c1ccccc1 | inactive | inactive | inconclusive: 11.2 µM [activator, partial curve, poor fit] |  |  |  |
| O=C(NCCCN1CCOCC1)c1ccc2c(c1)N(Cc1cccc(Cl)c1)C(=O)c1ccccc1S2 | inconclusive: 95.3 µM [inhibitor, single point] | inactive |  | inconclusive: 32.5% [activator] |  |  |
| Brc1ccc(C2Nc3cccc4cccc(c34)N2)cc1 | inactive | inconclusive: 16.9 µM [inhibitor, full curve, poor fit] | inactive |  |  |  |
| CCOC(=O)c1c(C)[nH]c(C)c1C(=O)COC(=O)c1cc(OC)cc(OC)c1 | inconclusive: 84.9 µM [inhibitor, partial curve, poor fit] | inconclusive: 37.9 µM [inhibitor, full curve] | inactive |  |  |  |
| Oc1ccc(-c2c(-c3ccsc3)sc3ccccc23)cc1 | inactive | inactive | inconclusive: 10 µM [activator, partial curve, poor fit] |  |  |  |
| Cc1ccc(C(=O)NNC(=O)c2ccccc2O)cc1S(=O)(=O)N1CCCCC1 | inconclusive: 47.8 µM [inhibitor, partial curve, poor fit] | inconclusive: 95.3 µM [inhibitor, single point] | inactive |  |  |  |
| CCCCC(=O)N(C)c1c(CC)nc2c(OCc3ccc(C(F)(F)F)cc3)cccn12 | inconclusive: 50.1 µM [inhibitor, partial curve] | inconclusive: 4.78 µM [inhibitor, partial curve, poor fit] |  | inconclusive: 50.3% [activator] [at 30.8 µM] |  |  |
| COCCNc1nc(Oc2cccc(F)c2)c2sccc2n1 | inconclusive: 84.9 µM [inhibitor, partial curve] | inconclusive: 47.8 µM [inhibitor, full curve, poor fit] | inconclusive: 0.01 µM [activator, full curve, poor fit] |  |  |  |
| COc1ccc(NC(=O)CSc2nc(O)cc(=O)n2-c2ccc(OC)cc2)cc1 | inconclusive: 84.9 µM [inhibitor, partial curve] | inactive |  | inconclusive: 33.6% [activator] |  |  |
| Cc1cc2c(C)nc(N/N=C/c3ccc(F)cc3)nc2o1 | inconclusive: 67.5 µM [inhibitor, partial curve] | inconclusive: 67.5 µM [inhibitor, partial curve, poor fit] | inconclusive: 0.141 µM [activator, full curve, poor fit] |  |  |  |
| CN1CCN(C(c2ccccc2Cl)c2sc3nc(-c4ccco4)nn3c2O)CC1 (stereo not given) | inactive |  | inactive |  |  | inactive [at 12.7 µM] |
| COc1cc(/C=N/NS(=O)(=O)c2ccc3ccccc3c2)ccc1OCc1ccc(C(=O)O)cc1 | inconclusive: 95.3 µM [inhibitor, partial curve, poor fit] | inconclusive: 75.7 µM [inhibitor, partial curve] | inconclusive: 1 µM [activator, full curve, poor fit] |  |  |  |
| Cc1ccc(S(=O)(=O)N2CCN(c3ncnc4sccc34)CC2)cc1C | inconclusive: 67.5 µM [inhibitor, partial curve, poor fit] | inconclusive: 84.9 µM [inhibitor, partial curve, poor fit] |  | inconclusive: 37.3% [activator] |  |  |
